The experiment has as its system 991263-137-R1-J2-PDC complex spheroid viability. The experiment in a line: Anticancer human tumor 991263-137-R1-J2-PDC patient-derived colon adenocarcinoma cell line growth inhibition [POLQ]. The settings on record: for viability, T/C: stronger effect = lower value. The protocol: Multicellular complex tumor spheroid response to Polymerase (POL) inhibitors (novobiocin, ART-558, RP6685) in combination with a variety of drugs and investigational agents in selected tumor cell lines
The POL inhibitors (novobiocin, ART-558, and RP6685) were evaluated both individually and in combination with standard of care and investigational anticancer small molecules within a complex spheroid model of solid tumors. . Complex spheroids include a stromal component modeled by human endothelial cells (HUVEC) and fibroblasts modeled by human mesenchymal stem cells (MSCs). The concentration ranges selected for each drug and investigational agent were based upon clinically achievable concentrations if the clinical Cmax of the agent was known.
Compounds. The drugs and investigational agents: novobiocin (NSC847541), ART-558 (NSC835418), RP-6685 (NSC848927), peposertib (NSC802822), ceralasertib (NSC780249), elimusertib (NSC800525), camonsertib (NSC841442), AZD-1390 (NSC803789), olaparib (NSC753686), talazoparib (NSC767125), rucaparib (NSC756644), sotorasib (NSC818433), MRTX-1133 (NSC836407), SN-38 (NSC673596), topotecan (NSC609699), epotoside (NSC141540), doxorubicin (NSC123127), gemcitabine (NSC613327), 5-fluorouracil (NSC19893), paclitaxel (NSC125973), vemurafenib (NSC761431), MSA-2 (NSC828583), SN-011 (NSC837082), adavosertib (NSC754352), prexasertib (NSC758257), carboplatin (NSC241240) and oxaliplatin (NSC266046), were obtained from the National Cancer Institute (NCI) Developmental Therapeutics Program Chemical Repository (21). The FDA-approved anticancer drug set is available from the Developmental Therapeutics Program at https://dtp.cancer.gov/organization/dscb/obtaining/. […] The stock solutions were prepared in dimethyl sulfoxide (DMSO, Sigma-Aldrich, St. Louis, MO, cat. D2650), except for the platinum compounds which were prepared in saline (Quality Biological, Gaithersburg, MD, cat. 114-055-101), at 800-fold the tested concentration and stored at -70 degrees C prior to their use. All drugs and investigational agents were tested over a range starting from a high concentration at or near the clinical Cmax and decreasing in half-log increments. If the clinical Cmax for an agent had not been determined, the highest concentration tested was 10 microM, except for SN-38, which was tested at a high concentration of 1 microM.
Cell Culture. All cells were maintained in an incubator at 37 degrees C and 5% CO2 with 95% humidity. The PDC lines were cultured according to standard operating procedures established by the NCI PDMR (https://pdmr.cancer.gov). Table 3 of the manuscript, lists the cell lines along with the number of the three cell types plated to form the mct-spheroids and media for tumor cell growth. After thawing, all PDC lines, except 997537-175-T-J1-PDC and 415267-285-R-J2-PDC, were cultured in Matrigel-coated flasks prepared with a working solution of 1X Ham's F-12 nutrient mix, without supplementation (Thermo Fisher Scientific, cat. 11765054), 100 U/mL penicillin-streptomycin (Thermo Fisher Scientific, cat. 15140122), and 2.5% Matrigel (Corning Inc., Corning, NY, cat. 354248) for the first three passages. The two PDC lines 997537-175-T-J1-PDC and 415267-285-R-J2-PDC were cultured on uncoated flasks. The 857933-349-R-J2-PDC line was cultured in 6C/Colon 1B media containing advanced DMEM/F-12 (Thermo Fisher Scientific, cat. 12634028), 10 mM HEPES (Thermo Fisher Scientific, cat. 15630080), 1X GlutaMAX supplement (Thermo Fisher Scientific, cat. 35050061), 0.1 mg/mL primocin (InvivoGen, San Diego, CA, cat. ant-pm-2), 10% defined fetal bovine serum, heat inactivated (HyClone Laboratories Inc., Logan, UT, cat. SH30070.03HI), 50% L-WRN conditioned media (ATCC, cat. CRL-3276), 1.25 mM N-Acetyl-L-cysteine (Sigma-Aldrich, cat. A9165), 10 mM nicotinamide (Sigma-Aldrich, cat. N0636), 1X B-27 supplement (Thermo Fisher Scientific, cat. 17504044), 1X N-2 supplement (Thermo Fisher Scientific, cat. […]

A number of entries come with more than one value. This list holds those alone. The source may hold further records. Values given together repeat one measurement (runs, samples, wells, individuals or studies). Counts like (3×) stand for listed records that agree.
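Note: spheroids exposed to compounds for 7 days before readout.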
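Throughout, for viability, T/C: 100% = DMSO vehicle control viability.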

Regarding `COc1cc(C2c3cc4c(cc3C(OC3OC5COC(C)OC5C(O)C3O)C3COC(=O)C23)OCO4)cc(OC)c1O` (stereo not given), for the setting “compound alone 0.316 µM”, the viability, T/C is recorded as 113%, 93.2%, 86.6%. For `CNCc1ccc(-c2[nH]c3cc(F)cc4c3c2CCNC4=O)cc1`, under “compound alone 3.16 µM”, the viability, T/C was 81% and 108% (2×).

Regarding `CCc1cc2c(N3CCc4c(cc(Cn5ccnc5)cc4-c4cn(C)nc4C(F)(F)F)C3=O)cc(C)nc2c(OC)n1`, the viability, T/C runs as follows: (compound alone 0.316 µM) 104%, 120%, 86.7%; (compound alone 1 µM) 68.5%, 98.5%, 97%. For `COC1C(OC(N)=O)C(O)C(Oc2ccc3c(O)c(NC(=O)c4ccc(O)c(CC=C(C)C)c4)c(=O)oc3c2C)OC1(C)C` (stereo not given), the viability, T/C (compound alone 0.1 µM) is 89.6, 92.6, 102, 104, 101 (2×), 98, 109, 82.4, 88.4, 116, 108%; the viability, T/C (compound alone 1 µM) is reported as 108, 102, 103, 97, 105, 98.3, 118, 107, 92.3, 115, 89, 92.8%; the viability, T/C (compound alone 3.16 µM) is recorded as 93.2, 104, 93.4, 108, 96.8, 98.7, 88.8, 95.3, 81.5, 99.6, 98.8, 96.6%; the viability, T/C (compound alone 10 µM) was 89.6, 94.5, 93.6, 102, 93.3, 113, 101 (2×), 79.9, 89.3, 90.2, 89.8%. Take `COc1cccc(OCCCN)c1-c1cc(Nc2cnc(C#N)cn2)n[nH]1`: under “compound alone 0.1 µM”, the viability, T/C is listed as 45.8%, 89.4%, 85.8%. As to `Cc1cccc(N(C)C(=O)C2C(O)CCN2c2nc(C)cc(C(F)(F)F)c2C#N)c1` (stereo not given), the viability, T/C is, setting by setting: (compound alone 0.316 µM) 103 (2×), 99.7, 95.8, 105, 109, 82.6, 96.3, 89.6, 106, 98.8, 113, 101%; (compound alone 1 µM) 94.4, 104, 100, 95.9, 107, 72.5, 91.9, 91.8, 98.1, 101, 93.4, 99, 103%. As for `COc1cc2cc(C(=O)CCC(=O)O)sc2cc1OC`, the viability, T/C is recorded as 127%, 95.9%, 92.4% (compound alone 1 µM) and 86.6%, 100%, 113% (compound alone 3.16 µM).

The term IC50 denotes the concentration at which inhibition is half-maximal. On to `Nc1ccn(C2OC(CO)C(O)C2(F)F)c(=O)n1` (stereo not given), for which the IC50 (compound alone) is 627 nM, 1.32 µM, 7.71 µM.

Consider `C=CC(=O)N1CCN(c2nc(=O)n(-c3c(C)ccnc3C(C)C)c3nc(-c4c(O)cccc4F)c(F)cc23)C(C)C1` (stereo not given), for which, for the setting “compound alone 3.16 µM”, the viability, T/C was 107%, 92.8%, 123%. Regarding `O=C(c1cc(Cc2n[nH]c(=O)c3ccccc23)ccc1F)N1CCN(C(=O)C2CC2)CC1`, under “compound alone 10 µM”, the viability, T/C was 74.9%, 104%, 97.2%. Turning to `C=CCn1c(=O)c2cnc(Nc3ccc(N4CCN(C)CC4)cc3)nc2n1-c1cccc(C(C)(C)O)n1`, the viability, T/C (compound alone 0.316 µM) is given as 74%, 107%, 111%. `O=c1[nH]cc(F)c(=O)[nH]1`: the viability, T/C (compound alone 3.16 µM) is given as 90.3%, 70.6%, 96.3%. `CCCS(=O)(=O)Nc1ccc(F)c(C(=O)c2c[nH]c3ncc(-c4ccc(Cl)cc4)cc23)c1F`: the viability, T/C (compound alone 1 µM) is reported as 70.9%, 107%, 106%.

For `CC(C)n1c(=O)n(C)c2cnc3cc(F)c(-c4ccc(OCCCN5CCCCC5)nc4)cc3c21`, the viability, T/C (compound alone 10 µM) is on record as 84.2%, 72.9%, 103%.

For the origin of these results see PubChem BioAssay AID1963828 (Molecular Pharmacology Branch, DTP, NCI, 2024).
